Test [1] has as its target RING1B (mouse (endogenous in mESCs, NSCs, FSPE fibroblasts)) (UniProt Q9CQJ4). As to the kind of experiment: co-IP; endogenous proteins from Eed4 WT and Eed4 cKO (doxycycline, Eed-depleted) mESC nuclear extracts; antibodies to RING1B, MEL-18, RYBP or CBX7 crosslinked to Protein A/G magnetic beads; with or without Benzonase or EtBr; washes in C-100* (100 mM KCl) at 4°C; western blot.

The chains behind the UniProt entries cited, without tags or fusion partners.
UniProt Q9CQJ4: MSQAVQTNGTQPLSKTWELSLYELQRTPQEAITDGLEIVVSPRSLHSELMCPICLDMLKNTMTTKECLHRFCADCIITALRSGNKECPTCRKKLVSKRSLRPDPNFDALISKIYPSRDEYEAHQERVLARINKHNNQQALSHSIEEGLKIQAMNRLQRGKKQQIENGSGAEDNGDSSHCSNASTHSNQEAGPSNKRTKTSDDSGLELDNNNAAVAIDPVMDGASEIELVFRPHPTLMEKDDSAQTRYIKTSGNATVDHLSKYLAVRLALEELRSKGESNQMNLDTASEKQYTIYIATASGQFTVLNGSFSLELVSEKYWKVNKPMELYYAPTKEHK

Test [2] addresses CBX7 (mouse (endogenous in mESCs, NSCs, FSPE fibroblasts)) (UniProt Q8VDS3). The test is described as above.
Test [3] deals with T1, MEL-18 (mouse (endogenous in mESCs, FSPE fibroblasts)) (UniProt P23798).
T1 sequence: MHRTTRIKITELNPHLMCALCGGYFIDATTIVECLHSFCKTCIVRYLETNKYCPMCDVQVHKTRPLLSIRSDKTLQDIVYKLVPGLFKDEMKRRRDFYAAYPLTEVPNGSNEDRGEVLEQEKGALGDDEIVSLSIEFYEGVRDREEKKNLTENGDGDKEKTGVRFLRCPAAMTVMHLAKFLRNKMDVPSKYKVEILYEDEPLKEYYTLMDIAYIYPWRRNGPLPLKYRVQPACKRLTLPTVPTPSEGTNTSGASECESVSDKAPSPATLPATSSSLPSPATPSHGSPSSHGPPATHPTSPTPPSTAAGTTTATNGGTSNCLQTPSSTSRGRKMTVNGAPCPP
The test is described as above.

In test [4] the target is RING1B (mouse (endogenous in mESCs, NSCs, FSPE fibroblasts)) (UniProt Q9CQJ4). As to the kind of experiment: co-IP; endogenous proteins from FSPE mouse fibroblast nuclear extract; IP of RING1B and RYBP; with or without Benzonase or EtBr; western blot.
Test [5] deals with T2, MEL-18-Flag (mouse) (UniProt P23798).
T2 sequence: T1 sequence
As to the kind of experiment: co-IP; Flag purification of MEL-18-Flag, RYBP-Flag or CBX7-Flag from PGK12.1 mESC nuclear extract, analysed by western blot.

The target in the next test is CBX7-Flag (mouse) (UniProt Q8VDS3). The description is as above.
Test [6] addresses T2, MEL-18-Flag (mouse). Description: SEC; MEL-18-Flag complexes purified from mESC nuclear extract by Flag affinity, run on Superose 6 PC 3.2/30 in C-100* buffer (100 mM KCl); fractions analysed by western blot.
In test [7] the target is T3, MEL-18-Flag (mouse), P23798.
T3 chain: T1 sequence
The test is described as above. To be noted: remark: other sources report otherwise.

In test [8] the target is T4, MEL-18 (mouse (endogenous in mESCs, FSPE fibroblasts)), P23798.
T4 chain: T1 sequence
As to the kind of experiment: co-IP; endogenous proteins from FSPE mouse fibroblast nuclear extract; IP of RING1B and RYBP; with or without Benzonase or EtBr; western blot. As to conditions: remark: other sources report otherwise.

The target of test [9] is T4, MEL-18 (mouse (endogenous in mESCs, …)). As to the kind of experiment: co-IP; endogenous proteins from Eed4 WT and Eed4 cKO (doxycycline, Eed-depleted) mESC nuclear extracts; antibodies to RING1B, MEL-18, RYBP or CBX7 crosslinked to Protein A/G magnetic beads; with or without Benzonase or EtBr; washes in C-100* (100 mM KCl) at 4°C; western blot. To be noted: remark: other sources report otherwise.

The target of test [10] is T5, RYBP (mouse (endogenous in mESCs, NSCs, FSPE fibroblasts)) (UniProt Q8CCI5).
T5 sequence: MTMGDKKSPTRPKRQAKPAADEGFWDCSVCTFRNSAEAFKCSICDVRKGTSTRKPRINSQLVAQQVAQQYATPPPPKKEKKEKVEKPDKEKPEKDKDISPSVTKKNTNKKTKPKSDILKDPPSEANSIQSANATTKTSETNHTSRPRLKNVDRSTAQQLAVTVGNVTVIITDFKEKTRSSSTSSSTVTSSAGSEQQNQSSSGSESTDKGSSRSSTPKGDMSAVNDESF
Described as above.

For test [11], the target named is T5, RYBP (mouse (endogenous in mESCs, NSCs, FSPE fibroblasts)). Description: co-IP; endogenous proteins from FSPE mouse fibroblast nuclear extract; IP of RING1B and RYBP; with or without Benzonase or EtBr; western blot.
A further test addresses T6, RYBP-Flag (mouse) (UniProt Q8CCI5).
T6 sequence: T5 sequence
Description: co-IP; Flag purification of MEL-18-Flag, RYBP-Flag or CBX7-Flag from PGK12.1 mESC nuclear extract, analysed by western blot.

No constants are given. Whether binding was seen depends on the method and setting. For some assays here: In cells and extracts the contact can be indirect. Some binding calls cover weakened binding; strength is not graded here. For some assays here: Tags and fused reporters may be left off the sequences shown.

The values below come from PMC3281992.

B1: RYBP (protein, UniProt Q8CCI5 1-228)
chain: T5 sequence
In the case of B1, the binding entry was “binds” in [1]; “no binding” in test [2]; “binds” in [3]; “binds” in test [4]; “binds” with MEL-18-Flag (mouse) [5]; “no binding” in the test with CBX7-Flag (mouse). For the same molecule, the binding result with MEL-18-Flag (mouse) [6] is given as “binds”.

B2: CBX7, Q8VDS3 1-158 (protein)
chain: MELSAIGEQVFAVESIRKKRVRKGKVEYLVKWKGWPPKYSTWEPEEHILDPRLVMAYEEKEERDRASGYRKRGPKPRRLLLQESAAPDVVQTPGDWEPMEQAPEEEAEADLTNGPPPWTPTLPSSEVTVTDITANSVTVTFREAQAAEGFFRDRNEKL
On to B2, for which the binding result in test [7], in test [8] and in [9] was “binds” each time.

B3: MEL-18 (protein, UniProt P23798 1-342)
chain: T1 sequence
Take B3: the binding result (in test [1]; in test [10]; in test [11]; with RYBP-Flag (mouse)) was “binds” each time.
